The supplement of paper PMC11417369
The other results are listed elsewhere or left out.

test system: PF3D7_0420300 AP2 domain 1 (GST-tagged); assay: gcPBM binding intensity (ln(normalized median fluorescence intensity)); higher = stronger DNA binding
Outline: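 Alexa488 anti-GST antibody, scanned at 488 nm, detected GST-tagged P. falciparum DNA-binding domains that had been expressed in E. coli and incubated for 1 h on an Agilent 4 × 180k array. The array carried primer-extended double-stranded 36-bp intergenic genomic probes and negative controls. Binding intensity is the highest Masliner-normalised natural-log median intensity across replicate spots of either orientation of each probe.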

| Sequence | gcPBM binding intensity (ln) |
| --- | --- |
| TATTTTGTAATAATTACACACGGAATTATAACAGAA [CACACA_site2355] | 9.47 |
| TCTTAATTTGTTATATGTACATAATATAATTGTATA [XGTACX_site5184] | 9.21 |
| TTATATTAATAAAAAGAAAATCATTTTTTCTTTTAT [CACACA_negctrl_site1595] | 8.66 |
| ATATATATATTTATATTTATATGTAAATATCAACGT [TGCATGCA_negctrl_site32] | 9.2 |
| ATTGTGTTAATGAAATGTACATTTTCTCTACGTTAA [XGTACX_site1322] | 9.18 |
| AATATTATGTATAACCGTACATTATATATATAATAA [XGTACX_site1594] | 9.21 |
| ATTAAAATAATTTAATTTCTTAGACACAATTTGTAA [GTGCAC_negctrl_site331] | 8.85 |
| TTAAACTTGTTTTGGATGCACTATATAATTCATTTT [GTGCAC_site9549] | 9.17 |
| TCCTACATATTATAGTGTACATTTTCATGTTCATAT [XGTACX_site4308] | 9.42 |
| AAGTATTATATATTTTGTACATATATAAAACCACAA [XGTACX_site5508] | 9.29 |
| TATTTATATTTATATACACACATACATATTTATATT [CACACA_site6535] | 9.57 |
| TATGTTCCTTTTTGTTGTACTGAAAAATTATGTTCA [XGTACX_site3981] | 9.2 |
| ATAATATAAATTAATTTACACACTAATAAATATATA [CACACA_site9259] | 9.33 |
| ATTTTAAATTTATCTGTGCACAGTATTATATAAGCA [GTGCAC_site9806] | 9.07 |
| TATATATATATATGTGCACACCAATTGTATGTAATA [CACACA_site3888] | 9.45 |
| AATATAAAATCAAGAAATTAAAAAAAAACAGAAAAC [CACACA_negctrl_site1004] | 9.8 |
| ACAAGATAATAGAGAAGTACTAATAAACATACACAA [XGTACX_site6617] | 9.5 |
| TCATAAAAGATTAAGTGTACATGTGCTACTCTTATA [XGTACX_site6255] | 9.07 |
| AGGTTTATAAAAAAAAAAAAAAAAAAAAAAAAAAAA [GTGCAC_negctrl_site113] | 8.63 |

| Sequence | gcPBM binding intensity (ln) |
| --- | --- |
| ACCCAGTGTATTCATAGTACACGCTCATATATTATC [XGTACX_site423] | 9.52 |
| AATATTTAAAACATATGTACTGAAAAACAATTGGAC [XGTACX_site6360] | 9.61 |
| AACAAGTTGCATGGTGCACACATGTATATATATCTA [CACACA_site2548] | 9.44 |
| AAAATGTATGTAGTCTGTACAAATACTCTATAAATA [XGTACX_site6475] | 9.22 |
| TACAATTTTACTCATAAACACACATATATATGTTAT [CACACA_site9031] | 9.35 |
| TATATATATATATATAGTACGCACACATAGTTGCAA [XGTACX_site5875] | 9.49 |
| TATTTTTTATGATTAACACACACACTAATAAAAAAA [CACACA_site9370] | 9.77 |
| ATTCTTACTAATATCGCACACACATATGTAGACGGG [CACACA_site88] | 9.59 |
| AATGAATATATTTATTGTACATATATGAATATTGCA [XGTACX_site8689] | 9.2 |
| ATTTTTTTATTTTTGTGTACTTATAAGAATATTAAT [XGTACX_site4850] | 9.33 |
| AAAAAAAAAAAAAAAAGTACAAAAAGGAGAAAGATA [XGTACX_site7862] | 9.48 |
| AATATATAAATTGACACACACATATATACCTATATA [CACACA_site4803] | 9.86 |
| AATATAAACACAAACACACACATATAGATTTATATA [CACACA_site6263] | 9.94 |
| CACAATGGTTTATATACACACTGTTGCAAATTCTTC [CACACA_site5659] | 9.45 |
| TTATACCTATATTTAACACACATTTGATAAAGTGCC [CACACA_site6732] | 9.33 |
| AAAAAATTTGTTTATTGTACAGAAAGAATTATTATA [XGTACX_site6549] | 8.95 |
| TTGTAGGTAAATATGTGTACGCATTATTATTCTTAA [XGTACX_site216] | 9.26 |
| GAGAGAGAAATAAAAAGTACATACATATATATACAT [XGTACX_site2267] | 9.29 |
| AAAAAAAACAGACACATACACACAAAAATGTTATAA [CACACA_site82] | 9.86 |

| Sequence | gcPBM binding intensity (ln) |
| --- | --- |
| ACCATTTTTATGTATAAACACACGTACCCGCACTAA [CACACA_site1604] | 9.36 |
| TGGAGATTTTTAAAGACACACAGGTAAGAATAATAA [CACACA_site1582] | 9.31 |
| AAACCAAAAATAACACGTACAAAAATAAAAAGTATA [XGTACX_site4261] | 9.84 |
| AAAACATATTTTAAAAGTACTTGAAAAAAAATTTTC [XGTACX_site3940] | 8.98 |
| ATTATGCACGGACACACACACACACCCCTAAAAAAT [CACACA_site5426] | 10.2 |
| TGTTAACCACAAAAATAAAATAAAATAAAAATAATA [XGTACX_negctrl_site535] | 9.24 |
| TGATAAATATTATGTTGTACTTTCTGCCCTTCACAT [XGTACX_site5168] | 9.39 |
| TATGCTATTATATATGTACACACCAATTTATTTATA [CACACA_site3918] | 9.56 |
| TTTCCCATAGGAAAAACACACATATATTATAGATAA [CACACA_site7019] | 9.24 |
| GAGAGAGAAATATGCACACATAAGGGAAATAAATAA [CACACA_site1153] | 9.57 |
| TTTTGATGCTTTAAATGTACAAGGGTTCTTATGAAA [XGTACX_site831] | 8.96 |
| GAAAAAAAAAGTTAAGCACACACATGAATAAATAAT [CACACA_site8179] | 9.84 |
| TGTATATAATTTATATGTACATATATTTTATTTTGT [XGTACX_site1905] | 9.27 |
| AAAAAAAAAAAATAGAAAAAAAAATAAAATAAAAAA [CACACA_negctrl_site562] | 9.15 |
| GACTTTTTCATTTTTAGTACACATATATATTTCCCT [XGTACX_site3511] | 9.82 |
| AAAAAAAAAAAACATACACACACACTAATATTTATA [CACACA_site8038] | 9.88 |
| ATATATTTTTAATATGCACACAAGAATACATTCACA [CACACA_site914] | 9.4 |
| TTAAAAAATCACAACACACACACACCCAAAAAAAAA [CACACA_site1445] | 9.88 |
